# In a collection of fitness landscapes (doi:10.1126/science.1257360):
# This is one part of the list.
# B1: PhoQ; a variant is named by its letters at X, in order, P23837 (parent)
# chain: MKKLLRLFFPLSLRVRFLLATAAVVLVLSLAYGMVALIGYSVSFDKTTFRLLRGESNLFYTLAKWENNKLHVELPENIDKQSPTMTLIYDENGQLLWAQRDVPWLMKMIQPDWLKSNGFHEIEADVNDTSLLLSGDHSIQQQLQEVREDDDDAEMTHSVAVNVYPATSRMPKLTIVVVDTIPVELKSSYMVWSWFIYVLSANLLLVIPLLWVAAWWSLRPIEALAKEVRELEEHNRELLNPATTRELTSLVRNLNRLLKSERERYDKYRTTLTDLTHSLKTPLXXLQXXLRSLRSEKMSVSDAEPVMLEQISRISQQIGYYLHRASMRGGTLLSRELHPVAPLLDNLTSALNKVYQRKGVNISLDISPEISFVGEQNDFVEVMGNVLDNACKYCLEFVEISARQTDEHLYIVVEDDGPGIPLSKREVIFDRGQRVDTLRPGQGVGLAVAREITEQYEGKIVAGESMLGGARMEVIFGRQHSAPKDE
# Variants of: B1
# Assay: enrichment ratio after two sorts for PhoP signalling (ratio (wild type AVST 3.29)); higher = more functional
# Details: with PhoP (E. coli)
row,Variant,enrichment ratio
1,PGGM,≤ 0.25
2,HFHG,≤ 0.25
3,PWVM,≤ 0.25
4,SQRV,≤ 0.25
5,IDEL,≤ 0.25
6,PAQD,≤ 0.25
7,RAPV,0.874
8,WCGR,≤ 0.25
9,EYGL,≤ 0.25
10,RIYF,≤ 0.25
11,GTNY,≤ 0.25
12,RIAG,≤ 0.25
13,GPAA,≤ 0.25
14,VAMH,≤ 0.25
15,FCST,≤ 0.25
16,YCHF,≤ 0.25
17,KMCR,≤ 0.25
18,RKIG,≤ 0.25
19,EEQS,≤ 0.25
20,AEYH,≤ 0.25
21,WCFA,≤ 0.25
22,GTIM,2.86
23,VDRS,≤ 0.25
24,PYTH,≤ 0.25

row,Variant,enrichment ratio
1,DVIQ,≤ 0.25
2,AFCF,≤ 0.25
3,SQGW,≤ 0.25
4,MQHD,≤ 0.25
5,NAGD,≤ 0.25
6,FAGM,≤ 0.25
7,GEGP,≤ 0.25
8,QAWR,≤ 0.25
9,EANG,≤ 0.25
10,FCDW,≤ 0.25
11,PVIM,≤ 0.25
12,RSGW,≤ 0.25
13,NFPT,≤ 0.25
14,LEYW,≤ 0.25
15,NEAG,2.93
16,WEVC,≤ 0.25
17,AQRT,≤ 0.25
18,HQVP,1.27
19,IKIL,≤ 0.25
20,MPRC,≤ 0.25
21,ARKV,≤ 0.25
22,GYYQ,≤ 0.25
23,RSCG,≤ 0.25
24,YRFR,≤ 0.25

row,Variant,enrichment ratio
1,GLME,≤ 0.25
2,TRDA,≤ 0.25
3,EGLG,≤ 0.25
4,MAAC,≤ 0.25
5,KMQR,≤ 0.25
6,NVAF,≤ 0.25
7,TETD,2.04
8,STHS,≤ 0.25
9,AQAT,5.01
10,HLKW,≤ 0.25
11,AMVS,2.64
12,IPGW,≤ 0.25
13,LFKS,≤ 0.25
14,SWVI,0.656
15,TVYT,≤ 0.25
16,WCCR,≤ 0.25
17,QEFC,≤ 0.25
18,TYKG,≤ 0.25
19,KFQY,0.877
20,IWPA,≤ 0.25
21,SASG,8.64
22,NPLG,≤ 0.25
23,VITK,≤ 0.25
24,PFSS,≤ 0.25

row,Variant,enrichment ratio
1,MIHY,≤ 0.25
2,THNI,14.1
3,ITEG,0.328
4,ALHM,≤ 0.25
5,WVLA,≤ 0.25
6,YMWK,≤ 0.25
7,EQLK,≤ 0.25
8,KPHW,≤ 0.25
9,ESMI,≤ 0.25
10,TAID,≤ 0.25
11,MVHN,≤ 0.25
12,EPGN,≤ 0.25
13,DDAL,≤ 0.25
14,NVDF,≤ 0.25
15,TSLK,5.37
16,TQMM,57.7
17,WKHP,≤ 0.25
18,LDPD,≤ 0.25
19,VQAK,≤ 0.25
20,KKSW,≤ 0.25
21,MAQY,≤ 0.25
22,SQHK,≤ 0.25
23,MGHA,≤ 0.25
24,HMVD,≤ 0.25

row,Variant,enrichment ratio
1,PHCN,≤ 0.25
2,SSNV,3.46
3,AMDN,≤ 0.25
4,CYLN,≤ 0.25
5,GNRH,≤ 0.25
6,EHYF,≤ 0.25
7,QEQP,≤ 0.25
8,DIYL,≤ 0.25
9,HSRH,≤ 0.25
10,YYSG,≤ 0.25
11,RHRW,≤ 0.25
12,TDGN,≤ 0.25
13,AMKA,≤ 0.25
14,VAFK,≤ 0.25
15,GMRS,≤ 0.25
16,QSLY,≤ 0.25
17,LNAR,≤ 0.25
18,YAAL,≤ 0.25
19,DNPV,≤ 0.25
20,LNWL,≤ 0.25
21,WCSG,≤ 0.25
22,RERI,≤ 0.25
23,CITY,≤ 0.25
24,SFSN,≤ 0.25

row,Variant,enrichment ratio
1,ICTW,≤ 0.25
2,IVWQ,≤ 0.25
3,WELC,≤ 0.25
4,FWSD,≤ 0.25
5,AMLV,5.5
6,MKWM,≤ 0.25
7,SPKC,≤ 0.25
8,PGLG,≤ 0.25
9,NTFF,≤ 0.25
10,QRRW,≤ 0.25
11,DQCD,≤ 0.25
12,NHRV,≤ 0.25
13,ETWF,≤ 0.25
14,SKLC,12.6
15,RDYG,≤ 0.25
16,IKTG,1.98
17,GQPL,≤ 0.25
18,QYFI,≤ 0.25
19,EKSD,≤ 0.25
20,ARTW,≤ 0.25
21,KSDF,≤ 0.25
22,LDLC,≤ 0.25
23,ITIF,≤ 0.25
24,PFPQ,≤ 0.25

row,Variant,enrichment ratio
1,AFSC,≤ 0.25
2,NIRG,≤ 0.25
3,QCRM,≤ 0.25
4,ESEW,≤ 0.25
5,WRCQ,≤ 0.25
6,MMSM,7.2
7,VGIC,≤ 0.25
8,PGII,≤ 0.25
9,FDIG,≤ 0.25
10,ATHP,≤ 0.25
11,LVGY,≤ 0.25
12,QKIF,≤ 0.25
13,YLRD,≤ 0.25
14,PAQR,≤ 0.25
15,DFDI,≤ 0.25
16,WKKR,≤ 0.25
17,DKYR,≤ 0.25
18,YLQS,≤ 0.25
19,NWIL,≤ 0.25
20,QNFG,≤ 0.25
21,GMGH,≤ 0.25
22,EMIR,≤ 0.25
23,QKTM,≤ 0.25
24,RAQW,≤ 0.25

row,Variant,enrichment ratio
1,SQDV,≤ 0.25
2,HDNW,≤ 0.25
3,MKFH,≤ 0.25
4,KDPL,≤ 0.25
5,MDNG,≤ 0.25
6,MPNV,≤ 0.25
7,DGTA,≤ 0.25
8,MGMV,11.1
9,DTHD,≤ 0.25
10,MKPD,≤ 0.25
11,PFGD,≤ 0.25
12,RHMW,≤ 0.25
13,GMPV,≤ 0.25
14,DTQR,≤ 0.25
15,VTFA,≤ 0.25
16,HSMW,≤ 0.25
17,DIWC,≤ 0.25
18,WYLM,≤ 0.25
19,ANMT,12.2
20,KGRW,≤ 0.25
21,GMDS,≤ 0.25
22,CTFI,9.39
23,RNTQ,≤ 0.25
24,DAHG,≤ 0.25

row,Variant,enrichment ratio
1,WYKR,≤ 0.25
2,GQWW,≤ 0.25
3,KMDP,≤ 0.25
4,ARRC,≤ 0.25
5,YWAI,≤ 0.25
6,YWSM,≤ 0.25
7,DGYE,≤ 0.25
8,RNMT,5.12
9,LGLW,≤ 0.25
10,DQFA,≤ 0.25
11,IDYP,≤ 0.25
12,FCKS,≤ 0.25
13,RALR,≤ 0.25
14,PQCI,≤ 0.25
15,PSWQ,≤ 0.25
16,TNHQ,≤ 0.25
17,NICF,≤ 0.25
18,RKYF,≤ 0.25
19,SKDR,≤ 0.25
20,SAVA,≤ 0.25
21,GFHI,≤ 0.25
22,ATNW,≤ 0.25
23,TRNV,≤ 0.25
24,FLKN,≤ 0.25

row,Variant,enrichment ratio
1,MFLT,≤ 0.25
2,PVDK,≤ 0.25
3,LVVI,≤ 0.25
4,GFFM,≤ 0.25
5,REFH,≤ 0.25
6,GQNY,≤ 0.25
7,IVEP,≤ 0.25
8,KCNN,≤ 0.25
9,LNVE,≤ 0.25
10,SWVW,≤ 0.25
11,RSKE,≤ 0.25
12,NVHP,≤ 0.25
13,EEPI,≤ 0.25
14,VNQQ,≤ 0.25
15,EGFD,≤ 0.25
16,NWWS,≤ 0.25
17,HTSF,≤ 0.25
18,DLSL,≤ 0.25
19,RPNM,≤ 0.25
20,THDQ,≤ 0.25
21,HAGE,≤ 0.25
22,KKHK,≤ 0.25
23,SVYG,0.76
24,LPVE,≤ 0.25

row,Variant,enrichment ratio
1,SSAI,9.88
2,NHTE,≤ 0.25
3,WPRI,≤ 0.25
4,NGCM,≤ 0.25
5,SNDD,≤ 0.25
6,SYER,≤ 0.25
7,NYRH,≤ 0.25
8,DQTT,≤ 0.25
9,SLPN,≤ 0.25
10,HYFN,≤ 0.25
11,TFVY,≤ 0.25
12,MACA,≤ 0.25
13,KRET,≤ 0.25
14,HKWY,≤ 0.25
15,NRYA,≤ 0.25
16,VPWI,≤ 0.25
17,WKPS,≤ 0.25
18,KNWG,≤ 0.25
19,EQLW,≤ 0.25
20,DWFY,≤ 0.25
21,MRAV,≤ 0.25
22,SETA,10.5
23,KAST,≤ 0.25
24,ETEF,≤ 0.25

row,Variant,enrichment ratio
1,DSKH,≤ 0.25
2,PQCP,≤ 0.25
3,EQGK,≤ 0.25
4,IMDA,≤ 0.25
5,QKVK,≤ 0.25
6,RMCR,≤ 0.25
7,SRKQ,≤ 0.25
8,RSIG,≤ 0.25
9,TEDW,≤ 0.25
10,SNRW,≤ 0.25
11,NDAH,≤ 0.25
12,QWTP,≤ 0.25
13,LFME,≤ 0.25
14,RQPC,≤ 0.25
15,LFKH,≤ 0.25
16,CETV,≤ 0.25
17,KQIR,≤ 0.25
18,MKIQ,≤ 0.25
19,LKDF,≤ 0.25
20,MIHV,≤ 0.25
21,PVWK,≤ 0.25
22,LFYC,≤ 0.25
23,NGKR,≤ 0.25
24,NEDN,≤ 0.25

row,Variant,enrichment ratio
1,NYFF,≤ 0.25
2,SCNV,≤ 0.25
3,LSMR,≤ 0.25
4,VYWK,≤ 0.25
5,HYWS,≤ 0.25
6,MQIN,≤ 0.25
7,YHSD,≤ 0.25
8,KYKK,≤ 0.25
9,MYRL,≤ 0.25
10,DRKW,≤ 0.25
11,TIIS,≤ 0.25
12,FTCE,≤ 0.25
13,QQQL,≤ 0.25
14,HMNH,≤ 0.25
15,KWFI,≤ 0.25
16,PHRS,≤ 0.25
17,LQIE,≤ 0.25
18,KLPC,≤ 0.25
